The values that follow come from PubChem BioAssay AID1508642 (National Center for Advancing Translational Sciences (NCATS), 2021).

Among all 43,000 compounds or so, about 200 (0.47%) were called active. About 12% were inconclusive and are not listed. Calls come from the whole dose curve; as a rule, active = well fitted cell-killing curve with a large enough effect; inconclusive = small, poorly fitted or top-dose-only effect, or effect the other way; inactive = flat fitted curve, though single readings scatter. The list shows a part of the results.
% is set by controls: 0 for no effect and ±100 for the full control effect; potency is the fitted concentration of half-maximal effect.

A short description of the experiment: Cell viability qHTS assay in S16 Pmp22-F2sN cells. Note: nearly all actives have a fitted effect of over 65% in size. As to conditions: S16 Pmp22-F2sN Schwann cells viability, CellTiter-Glo, 24 h; series mostly up to 57.5 µM; activity change, negative = cytotoxicity: at the top concentration. In outline: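 Viability was measured by CellTiter-Glo luminescence (15 min, room temperature). This followed 24 h at 37 °C of compound exposure (23 nL pin transfer) in S16 Pmp22-F2sN Schwann cells, 500-1,000 per well.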
On the technique in general: Quantitative high-throughput screening tests each substance at several concentrations.
In the case of `COc1ccc(-n2nc(C(=O)NCCc3ccc(Cl)cc3)c3c4ccccc4n(C)c3c2=O)cc1`, the “activity change, negative = cytotoxicity” value was inactive: 2.56%.
Still for that read-out and setting: next, `COc1ccc(C2c3c(-c4ccccc4)n[nH]c3C(=O)N2c2ccc(C(=O)O)cc2)c(OC)c1` (stereo not drawn): inactive: 2.12%; `Cc1ccc(NC(=O)Cn2c(=O)n(CCC(=O)N3CCc4ccccc4C3)c(=O)c3ccccc32)c(C)c1`: inactive: 6.63%.
As for `Cc1ccc(-c2c(CN3CCN(c4cccc(C)c4C)CC3)csc2C)cc1`, the “activity change, negative = cytotoxicity” value was inactive: -21.2%.
As to `Cc1ccccc1NC(=O)Cn1c(=O)n(CCC(=O)N2CCc3ccccc3C2)c(=O)c2ccccc21`, the “activity change, negative = cytotoxicity” value was inactive: 17.2%.
As to `CCC1CN(C(=O)N2CCC(C(=O)NCCCc3ccccc3)CC2)c2cc(C)ccc2O1` (stereo not drawn), the “activity change, negative = cytotoxicity” value was inactive: -26%.
Same read-out and setting: in the case of `Cc1cccc(NC(=O)c2cccc(N3CCCS3(=O)=O)c2)c1` it was inactive: 11.6%; in that of `O=C(COc1ccc(F)cc1)Nc1ccc(OCc2cc(=O)n3ccsc3n2)cc1`, inactive: 9.23%.
Turning to `CCCc1cnc2c(c1SCC(=O)Nc1ccc([N+](=O)[O-])cc1)c(=O)n(C)c(=O)n2C`, the “activity change, negative = cytotoxicity” value was inactive: -14.3%.
Same read-out and setting: next, `Cc1ccc(C2CC(=O)n3nc(-c4ccc(F)cc4)nc3S2)cc1` (stereo not drawn): inactive: 9.06%; `Cc1ccc(Cl)cc1NC(=O)c1sc2nc(C)c(C)c(C)c2c1N`: inactive: 3.04%; `COc1ccc(NC(=O)CCS(=O)(=O)c2cc3c(cc2C)NC(=O)CO3)cc1Cl`: inactive: -2.31%.
Same read-out and setting: next, `Cc1ccc(C)c(NC(=O)c2cnn(-c3ccc(F)cc3F)c2C2CCNCC2)c1`: inactive: 6.01%.
`CCOC(=O)c1ccc(NC(=O)CN2C(=O)C(C)(C)c3ccccc32)cc1`: the “activity change, negative = cytotoxicity” value is inactive: 5.62%.
Regarding `Cc1ccc(Nc2ccc(N3CCN(C(=O)c4cccc([N+](=O)[O-])c4)CC3)nn2)cc1`, the “activity change, negative = cytotoxicity” value is inactive: -18.6%.
On the same count and under the same terms, next, `O=C(CSc1ncc2c(n1)-c1ccccc1N(Cc1ccc(Cl)cc1)S2(=O)=O)c1ccc(Cl)cc1`: inactive: -1.87%.
Same read-out and setting: next, `CCCC12CN3CC(CCC)(CN(C1)C3c1ccc(OCc3ccccc3)cc1)C2=O` (stereo not drawn): inactive: 4.48%; `Cc1cccc(C)c1NC(=O)CCSc1nc(-c2ccc3c(c2)OCO3)cc(C(F)(F)F)n1`: inactive: -5.51%.
On to `Cc1cc(O)c(C(c2ccccc2)N2CCC(C)CC2)c(=O)n1Cc1ccco1` (stereo not drawn), for which the “activity change, negative = cytotoxicity” value was inactive: -8.36%.
Same read-out and setting: next, `Cc1cn2c(=O)cc(COc3ccc(NC(=O)c4ccc(C(C)(C)C)cc4)cc3)nc2s1`: inactive: 1.54%; `Cc1cccc(NC(=O)C2CCCN2S(=O)(=O)c2cccc3nsnc23)c1C` (stereo not drawn): inactive: -0.908%.
Consider `CCN(C(=O)c1sc2nc3n(c(=O)c2c1C)CCCC3)c1ccccc1F`, for which the “activity change, negative = cytotoxicity” value is inactive: -14.7%.
Same read-out and setting: next, `Cc1ccc(CCNC(=O)c2cc(-c3ccccc3)n[nH]2)cc1`: inactive: 8.15%; `Brc1cccc(-c2nnn3c2nc(NC2CCCCC2)c2ccccc23)c1`: inactive: 21.7%.
Consider `C=Cc1ccc(CN2C(=O)N(c3ccc(C)c(C)c3)S(=O)(=O)c3ccccc32)cc1`, for which the “activity change, negative = cytotoxicity” value was inactive: 0.533%.
Consider `CCOc1ccc(NC(=O)c2cc3cc4ccc(C)cc4nc3o2)cc1`, for which the “activity change, negative = cytotoxicity” value is inactive: 14.6%.
For the compound `COc1ccc2nc3sc(C(=O)NCCc4ccc(Cl)cc4)cc3cc2c1`, the “activity change, negative = cytotoxicity” value is inactive: 9.4%.
As for `CCS(=O)(=O)c1ncc(Cl)c(C(=O)Nc2ccc(S(=O)(=O)N(C)c3ccccc3)cc2)n1`, the Potency is active: 4.47 µM.
On to `CC1CCCCN1CCNC(=O)c1ccc(Cn2c(SCc3ccccc3)nc3cccnc32)cc1` (stereo not drawn), for which the “activity change, negative = cytotoxicity” value was inactive: -21.2%.
Same read-out and setting: next, `Cc1ccc(C)c(NC(=O)Nc2cc3c(cc2N2CCCCC2)n(C)c(=O)n3C)c1`: inactive: -22.9%.
The same measure, in the same setting: next, `COc1cc(OC)c(NC(=O)C2=C(C)C(=O)OC23CCN(C(C)=O)CC3)cc1Cl`: inactive: -7.37%; `Cc1ccc(CSc2nc3cccnc3n2Cc2ccc(C(=O)NC3CC3)cc2)cc1`: inactive: -2.03%.
The same measure, in the same setting: in the case of `Cc1ccc(-n2ncc3c(=O)n(Cc4cccc(Cl)c4)cnc32)cc1C` it was inactive: 2.85%.
Regarding `O=C(NCc1ccccc1)c1cccn1-c1nnc(N2CCCCC2)s1`, the “activity change, negative = cytotoxicity” value was inactive: 15.7%.
Same read-out and setting: next, `CCCn1c2ccccc2c2cnn(CC(=O)NCCc3ccc(S(N)(=O)=O)cc3)c(=O)c21`: inactive: 0.42%; `Cn1c(NCc2cccc(Cl)c2)nc2ccccc21`: inactive: -19%.
The same measure, in the same setting: next, `COCCNC(=O)CSc1c(C)cnc2c1c(=O)n(C)c(=O)n2C`: inactive: 2.19%; `Cc1ccc(NC(=O)Cn2cnc3c(oc4ccccc43)c2=O)cc1Cl`: inactive: -7.92%; `COc1ccc(NC(=O)CCCOc2cc(=O)n(C)c3ccccc23)c(OC)c1`: inactive: -23.2%.
The same measure, in the same setting: in the case of `Cc1ccc(Cn2c(CO)cnc2SCc2ccc(F)cc2)cc1` it was inactive: -15.7%.
Turning to `O=C(Nc1ccc(Cl)cc1Cl)c1cc(S(=O)(=O)NCc2ccc3c(c2)OCO3)ccc1F`, the “activity change, negative = cytotoxicity” value was inactive: 3.47%.
Same read-out and setting: next, `CN(C)c1ccc(CNC(=O)C2CCN(c3nnc(-n4cccc4)s3)CC2)cc1`: inactive: 0.172%; `CCOc1ccc(C(=O)Nc2ccc(-c3cc4ccccc4oc3=O)cc2)cc1Br`: inactive: -4.28%; `Cc1nn(CCC(=O)Nc2ccc(Cl)cc2)c(C)c1S(=O)(=O)N1CCCCC1`: inactive: -17%.
For `COc1ccccc1Cn1cc(C(=O)c2ccccc2)c(=O)c2cc(OC)c(OC)cc21`, the “activity change, negative = cytotoxicity” value is inactive: 11.1%.
Turning to `O=S(=O)(NCCS(=O)(=O)N1CCN(c2ccccc2)CC1)c1ccccc1`, the “activity change, negative = cytotoxicity” value is inactive: 2.23%.
Same read-out and setting: next, `COC(=O)c1ccc(NC(=O)C(C)Sc2nc(=O)cc(N)n2CCc2ccccc2)cc1` (stereo not drawn): inactive: -23.2%.
On the same count and under the same terms, in the case of `CN(C1CCCCC1)S(=O)(=O)c1ccc2c(c1)c(=O)c(C(=O)N1CCN(c3ccccc3)CC1)cn2C` it was inactive: -0.375%.
